Test results taken from PubChem BioAssay AID588591 (National Center for Advancing Translational Sciences (NCATS), 2011).
About 4,700 (1.2%) of roughly 390,000 compounds were called active. The inconclusive results got no clear call from the source; some entries with a clear call stand among them for comparison. The call rests on the fitted dose curve; in most records, active means well fitted inhibition curve with a large enough effect; inconclusive means small, poorly fitted or top-dose-only effect, or another doubt; inactive means no such curve, though single readings can be large or run the other way. Potencies of inconclusive entries are doubtful fits and often do not repeat. Where a SMILES comes first, the peptide text is derived from it. The star is where a group is joined. Cbz = O=C(OCc1ccccc1)*

target: DNA polymerase eta (Homo sapiens) (UniProt Q9Y253); test: qHTS for Inhibitors of Polymerase Eta; details: recombinant Pol eta, fluorescent DNA replication assay; series mostly up to 114 µM; activity change, negative = inhibition: at the top concentration
Outline: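 Fluorescent replication assay: 50 nM final substrate added after a 15 min room-temperature compound preincubation with 10 nM enzyme. Signal taken at 0 min and again at 10 min.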
On the % scale 0 is the no-effect control and ±100 the full control effect; potency means the concentration at half of the fitted maximal effect; tags describe the fitted curve by direction and shape.

UniProt Q9Y253, sequence (Q9Y253 whole entry, looked up): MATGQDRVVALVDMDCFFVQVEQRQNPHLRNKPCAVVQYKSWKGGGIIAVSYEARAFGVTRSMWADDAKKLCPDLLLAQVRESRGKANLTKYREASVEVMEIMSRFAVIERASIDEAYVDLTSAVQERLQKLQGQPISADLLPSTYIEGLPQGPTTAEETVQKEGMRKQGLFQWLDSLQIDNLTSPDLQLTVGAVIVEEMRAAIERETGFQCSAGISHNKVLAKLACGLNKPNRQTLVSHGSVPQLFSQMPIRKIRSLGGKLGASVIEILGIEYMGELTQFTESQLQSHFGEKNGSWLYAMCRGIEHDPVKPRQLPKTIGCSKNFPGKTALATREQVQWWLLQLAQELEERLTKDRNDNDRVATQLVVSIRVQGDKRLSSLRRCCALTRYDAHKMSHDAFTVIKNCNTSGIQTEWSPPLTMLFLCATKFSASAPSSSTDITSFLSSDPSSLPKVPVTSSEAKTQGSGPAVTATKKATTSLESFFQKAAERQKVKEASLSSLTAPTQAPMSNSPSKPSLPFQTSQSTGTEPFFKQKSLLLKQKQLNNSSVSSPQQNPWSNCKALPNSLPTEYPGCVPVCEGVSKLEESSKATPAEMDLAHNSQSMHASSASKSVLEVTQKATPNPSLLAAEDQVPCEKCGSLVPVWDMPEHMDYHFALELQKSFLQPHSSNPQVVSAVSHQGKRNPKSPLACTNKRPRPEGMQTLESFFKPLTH

SMILES | Potency | activity change, negative = inhibition
O=C(O)C1C2C=CC(C2)C1C(=O)NCCc1ccncc1 (stereo not given) | inconclusive: 28.2 µM [inhibitor, partial curve] | 
O=C(CCc1nc2ccccc2c(=O)[nH]1)Nc1ccc(F)c([N+](=O)[O-])c1 | inconclusive: 56.2 µM [inhibitor, partial curve, poor fit] | 
O=C(c1ccccc1NS(=O)(=O)c1cccc(C(F)(F)F)c1)N1CCc2ccccc21 | inconclusive: 20 µM [inhibitor, partial curve] | 
COc1ccc2[nH]c3c(=O)n(/N=C/c4ccc(OC)c(CN5CCCC5)c4)c(C)nc3c2c1 | inconclusive: 28.2 µM [inhibitor, partial curve, poor fit] | 
Cc1ccc(C(=O)N/N=C/c2cccc(OC(=O)/C=C/c3ccco3)c2)cn1 | inconclusive: 50.1 µM [inhibitor, partial curve] | 
COc1ccc(C(=O)NCC(=O)OCC(=O)Nc2ncc(Cl)cc2Cl)cc1[N+](=O)[O-] | active: 50.1 µM | 
COc1ccc(Br)cc1C(=O)Nc1cccc(-c2nnc(-c3ccco3)o2)c1 | inconclusive: 79.4 µM [inhibitor, partial curve, poor fit] | 
C#CCOCCOCCOCCNc1nc(N2CCN(C(=O)CCCCCCCCCCNC(=O)[C@H](CCCCN)n3cc(CCO)nn3)CC2)nc(N2CCN(C(=O)CCCCCCCCCCNC(=O)[C@H](CCCCN)n3cc(CCCC(=O)O)nn3)CC2)n1 |  | inactive: -21.2%
COc1ccc(-n2sc3ccccc3c2=O)cc1 |  | inactive: -22.3%
Cc1cnc(C(=O)Nc2nccs2)cn1 | inconclusive: 28.2 µM [inhibitor, partial curve] | 
COC(=O)c1cc(OC)c(OC)c(OC)c1NC(=O)c1cc(=O)n(C)c(=O)n1C |  | inactive: 2.05%
CCO[C@@H]1OC(C(=O)N2CCN(Cc3ccc4c(c3)OCO4)CC2)=C[C@H](c2ccc(Br)cc2)[C@H]1CCCO | inconclusive: 79.4 µM [inhibitor, partial curve, poor fit] | 
CCNc1ccc2noc3c2c1C(=O)c1ccccc1-3 | inconclusive: 56.2 µM [inhibitor, partial curve, poor fit] | 
COc1ccc(C)cc1NC(=O)CN1CCCN(S(=O)(=O)c2ccc(Br)cc2)CC1 | inconclusive: 89.1 µM [inhibitor, partial curve, poor fit] | 
CC(C)[C@H](NC(=O)OCc1ccccc1)C(=O)N[C@H](C=O)Cc1ccccc1 (Cbz-Val-Phe-aldehyde) | inconclusive: 0.282 µM [inhibitor, full curve, poor fit] | 
CCOC(=O)CSc1nc(N)c(C#N)c(-c2ccc(OC)cc2)c1C#N |  | inactive: 3.82%
O=C(Nc1ccc2c(c1)OCO2)c1ccc(=O)[nH]n1 | inconclusive: 56.2 µM [inhibitor, partial curve, poor fit] | 
COc1ccccc1/C=C(/CC(=O)NCc1ccccc1)c1nc2ccccc2s1 | inconclusive: 31.6 µM [inhibitor, partial curve, poor fit] | 
C=C(C)C(=O)Nc1ccc(OC(F)(F)C(F)F)c(NC(=O)C(=C)C)c1 | active: 17.8 µM | 
CC(=O)c1sc(NC(=O)c2ccc(Cn3cc(Br)cn3)o2)nc1C | inconclusive: 15.8 µM [inhibitor, full curve, poor fit] | 

SMILES | Potency | activity change, negative = inhibition
CCN(CC)CCNC(=O)c1sc2nc(C)cc(C)c2c1-n1cccc1 |  | inactive: -4.24%
CC1=CCC[C@@H]2[C@@](C)(CC/C(C)=C/C(=O)O)[C@H](C)CC[C@@]12C | inconclusive: 89.1 µM [inhibitor, single point] | 
Cc1cc(C)cc(NC(c2cccc(Cl)c2)c2nnc(-c3ccccc3)o2)c1 (stereo not given) |  | inactive: -22%
O=C(Nc1nnc(C2CC2)s1)c1n[nH]c(=O)c2ccccc12 | inconclusive: 79.4 µM [inhibitor, partial curve, poor fit] | 
CCC(=O)Nc1cc(-c2nc3cc(C)cc(C)c3o2)ccc1C |  | inactive: -5.49%
O=C(CSc1nc2ccccc2c(=O)n1Cc1ccc(C(=O)NC2CC2)cc1)NCc1ccco1 | inconclusive: 28.2 µM [inhibitor, partial curve] | 
Cc1ccc(C2=NN=C(NC(=O)CSc3nnc4c5ccccc5n(C)c4n3)SC2)cc1 | inconclusive: 25.1 µM [inhibitor, partial curve] | 
O=C(NCc1nc2ccccc2[nH]1)c1ccc(Cl)c(S(=O)(=O)N2CCCC2)c1 | inconclusive: 15.8 µM [inhibitor, partial curve] | 
CCCC12CN3CC(C)(CN(C1)C3c1cn(CC)c3ccccc13)C2=O (stereo not given) |  | inactive: -25.7%
CC(C)(C)NCC(O)COc1nsnc1N1CCOCC1 (stereo not given) |  | inactive: -6.91% [at 57.1 µM]
CCN1/C(=C/c2ccc3cc(C)ccc3[n+]2C)Sc2ccc3sccc3c21 | inconclusive: 11.2 µM [inhibitor, partial curve, poor fit] | 
Cc1nc(C(=O)N(C)C)nn1-c1ccc(Cl)cc1Cl |  | inactive: 5.87%
O=C(/C=C/c1ccc([N+](=O)[O-])cc1)c1cccs1 | inconclusive: 89.1 µM [inhibitor, partial curve, poor fit] | 
Cc1ccn2c(NC(=O)C(C)(C)Oc3ccc(Cl)cc3)c(-c3cccs3)nc2c1 | inconclusive: 56.2 µM [inhibitor, partial curve, poor fit] | 
CCOC(=O)N1CCN(C(=O)c2ccc(S(=O)(=O)NCc3ccco3)cc2)CC1 | inconclusive: 79.4 µM [inhibitor, partial curve, poor fit] | 
COc1ccc(CN(C)c2ccc(-c3nc(C)no3)cc2[N+](=O)[O-])cc1 |  | inactive: -7.54%
N#Cc1c(C(F)(F)F)cc(-c2ccco2)nc1SCc1ccncc1 | inconclusive: 15.8 µM [inhibitor, partial curve, poor fit] | 
CCc1ccc(OCC(=O)Nc2ccc(-c3nc4ccccc4o3)c(O)c2)cc1 | inconclusive: 5.62 µM [inhibitor, partial curve] | 
COc1cc(N2CCCC2)c(OC)cc1/C=C1/NC(=S)NC1=O | inconclusive: 28.2 µM [inhibitor, partial curve] | 
CCOc1ccc(NS(=O)(=O)c2ccc3[nH]cc(C(=O)NC(C)CC)c(=O)c3c2)cc1 (stereo not given) | inconclusive: 35.5 µM [inhibitor, partial curve, poor fit] | 
